SMILES strings stand for the structures. Hit rate of the full screen: of about 310,000 compounds, about 14,000 (4.5%) showed an effect of 50% or more. The effect is printed as a negative number. The list shows a part of the results.
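Also: peak tail current of the secondary pulse compared with the same well before compound.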

The target in the assay is human ether-à-go-go-related gene (hERG) potassium channel (human, UniProt Q12809). Kind of assay: primary screen, population patch clamp on CHO cells stably expressing hERG.
Sequence of human ether-à-go-go-related gene (hERG) potassium channel (Q12809 whole entry, looked up): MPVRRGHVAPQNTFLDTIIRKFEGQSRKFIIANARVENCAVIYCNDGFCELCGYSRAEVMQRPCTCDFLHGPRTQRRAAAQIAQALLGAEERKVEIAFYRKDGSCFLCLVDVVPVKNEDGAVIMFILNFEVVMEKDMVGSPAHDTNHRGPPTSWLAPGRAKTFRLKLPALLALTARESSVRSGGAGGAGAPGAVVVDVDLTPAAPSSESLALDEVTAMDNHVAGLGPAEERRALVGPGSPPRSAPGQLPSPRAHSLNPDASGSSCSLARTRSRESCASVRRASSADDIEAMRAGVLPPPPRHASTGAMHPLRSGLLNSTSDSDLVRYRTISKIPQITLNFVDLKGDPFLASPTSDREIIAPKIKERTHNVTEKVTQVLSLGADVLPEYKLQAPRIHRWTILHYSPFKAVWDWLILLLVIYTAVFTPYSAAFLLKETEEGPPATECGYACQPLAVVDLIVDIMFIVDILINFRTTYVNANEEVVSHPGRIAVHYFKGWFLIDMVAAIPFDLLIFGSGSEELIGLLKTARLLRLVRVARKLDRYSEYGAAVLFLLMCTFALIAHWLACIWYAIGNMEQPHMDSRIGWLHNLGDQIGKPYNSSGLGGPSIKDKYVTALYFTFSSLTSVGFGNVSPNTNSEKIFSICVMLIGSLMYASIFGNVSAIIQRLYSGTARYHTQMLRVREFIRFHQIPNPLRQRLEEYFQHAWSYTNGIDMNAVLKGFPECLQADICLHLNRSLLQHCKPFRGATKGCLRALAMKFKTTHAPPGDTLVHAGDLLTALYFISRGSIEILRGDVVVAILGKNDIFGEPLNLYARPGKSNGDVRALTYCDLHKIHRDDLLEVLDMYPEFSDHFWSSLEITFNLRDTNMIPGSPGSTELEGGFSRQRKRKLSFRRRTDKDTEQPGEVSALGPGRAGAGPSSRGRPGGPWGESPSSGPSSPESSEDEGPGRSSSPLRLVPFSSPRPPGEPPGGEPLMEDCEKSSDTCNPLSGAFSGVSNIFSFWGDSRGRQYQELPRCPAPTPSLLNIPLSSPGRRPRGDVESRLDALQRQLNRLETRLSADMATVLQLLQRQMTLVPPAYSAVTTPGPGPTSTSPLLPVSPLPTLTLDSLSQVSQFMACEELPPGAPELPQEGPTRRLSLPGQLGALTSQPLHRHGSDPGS
`COc1cc(/C=N/Nc2ccc3ccccc3c2)ccc1OC(=O)c1ccco1`: the “hERG current change (%, negative = inhibition) at 10uM” value amounted to 19%.
As to `COc1ccc2nc(N/C(N)=N/C(=S)Nc3cccc(C)c3)nc(C)c2c1`, the “hERG current change (%, negative = inhibition) at 10uM” value is on record as 4.25%.
Consider `COc1ccc(CN(C(=O)c2ccc3c(c2)OCCO3)C(C(=O)NC2CCCCC2)c2ccc3ncccc3c2)cc1` (stereo not shown), for which the “hERG current change (%, negative = inhibition) at 10uM” value was -15.1%.
With `O=[N+]([O-])c1cc(C(F)(F)F)ccc1NCCc1c[nH]c2ccccc12`, the “hERG current change (%, negative = inhibition) at 10uM” value stood at 7.06%.
Under `CCOc1ccc(-n2cnc3c(=O)[nH]c(N)nc32)cc1` stands 7.78%; under `Cc1cc(=O)n2c3ccccc3n(CC(O)CN3CCOCC3)c2c1C#N` (stereo not shown), 17.9%.
Turning to `Cc1nn2c([nH]c(=O)c3ccccc32)c1C=O`, the “hERG current change (%, negative = inhibition) at 10uM” value was -9.07%.
With `Cc1cccnc1NC(=O)Cn1c(=O)oc2ccccc21`, the “hERG current change (%, negative = inhibition) at 10uM” value was found to be 23%.
Consider `CCOC(=O)N1CCN(S(=O)(=O)c2c(C)nc3scc(C)n3c2=O)CC1`, for which the “hERG current change (%, negative = inhibition) at 10uM” value was 3.41%.
In the case of `Cc1cc(C(=O)Nc2cccc([N+](=O)[O-])c2C)cs1`, the “hERG current change (%, negative = inhibition) at 10uM” value is reported as 19.1%.
Consider `COc1ccc(Cl)cc1NC(=O)CN(C)C(=O)Cc1ccc(-c2ccccc2)cc1`, for which the “hERG current change (%, negative = inhibition) at 10uM” value is given as -5.3%.
With `CCOC(=O)C1CCCN(C(=O)CCCn2c(=O)c3cccn3c3cccnc32)C1` (stereo not shown), the “hERG current change (%, negative = inhibition) at 10uM” value turned out to be 3.04%.
Under `Cc1cc(=O)oc2cc(OCCc3ccccc3)ccc12` stands -0.326%; under `CCCNC(=O)COC(=O)/C=C/c1ccc2c(c1)OCO2`, 3.94%; under `CCC1=NN(C(=O)c2ccccc2O)C(O)(c2ccccc2)C1` (stereo not shown), 6.94%.
Under `COCCSc1nnc(NC(=O)C2CC(=O)N(c3ccc(C)cc3)C2)s1` (stereo not shown) stands 2.13%; under `Cn1c(CNC(=O)CNC(=O)c2ccc(C(C)(C)C)cc2)cc(=O)n(C)c1=O`, 16.2%; under `COc1ccc(S(=O)(=O)N2CCOC23CCN(C(=O)c2c(F)cccc2Cl)CC3)cc1`, -17.6%.
Under `COc1cc(OC)cc(C(=O)N2CCC3(CC2)NCCc2[nH]cnc23)c1` stands 17.2%.
Take `O=C(/C=C\c1cn(-c2ccccc2)nc1-c1ccccc1)Nc1nccs1`: the “hERG current change (%, negative = inhibition) at 10uM” value was found to be 6.78%.
Regarding `Cc1ccc(S(=O)(=O)N(C)C)cc1NC(=O)CSc1nncs1`, the “hERG current change (%, negative = inhibition) at 10uM” value was -1.01%.
Take `COc1ccc2c(c1)[nH]c1c(N3CCN(Cc4ccc5c(c4)OCO5)CC3)ncnc12`: the “hERG current change (%, negative = inhibition) at 10uM” value is recorded as -74%.
Under `O=C(Nc1ccc(S(=O)(=O)N2CCOCC2)cc1)c1ccc(Cl)s1` stands -5.32%; under `COc1ccc(NC(=O)N2CCC(C(=O)c3ccc(F)cc3)CC2)cc1`, -18.6%.
Take `Oc1ccccc1C(=S)N1CCCC1`: the “hERG current change (%, negative = inhibition) at 10uM” value is on record as 13.8%.
The value for `OC1COC(OCC2OC(OCc3ccccc3)C(O)C(O)C2O)C(O)C1O` (stereo not shown) was -11.1%.
For the compound `CC(=O)Nc1ccc(C(=O)NNC(=O)c2ccc(Cl)cc2Cl)cc1`, the “hERG current change (%, negative = inhibition) at 10uM” value was found to be 18.1%.
As to `S=C1NC2=C(CCC/C2=C\c2ccc(Cl)cc2)C(c2ccc(Cl)cc2)N1` (stereo not shown), the “hERG current change (%, negative = inhibition) at 10uM” value is reported as -14.8%.
The value for `CC1CCN(C(=O)Cn2nnnc2CN2CCOCC2)CC1` was -22%; that for `OCC1(CCOc2ccccc2)CCN(Cc2cccn2-c2ncccn2)CC1` was -82.2%; that for `Cc1cccc(C(=O)NCCCNC(=O)c2cccc(C)c2)c1` was -3.67%.
On to `Cc1ccc(S(=O)(=O)NC2(C(F)(F)F)NC(=O)N(C)C2=O)cc1` (stereo not shown), for which the “hERG current change (%, negative = inhibition) at 10uM” value is listed as -8.17%.
The value for `Cc1cccc(CSc2ncnc3ccccc23)c1` was 22.5%; that for `CC1CCN(S(=O)(=O)c2ccc(C(=O)OC(C)C(=O)NC3CCCCC3C)cc2)CC1` (stereo not shown) was 3.77%; that for `O=C(Nc1cccc(Cl)c1Cl)c1cc(S(=O)(=O)NCCc2ccccc2)ccc1F` was -2.79%.
On to `COc1ccc(Nc2nc(-c3ccccc3)nc3ccccc23)cc1S(=O)(=O)N1CCOCC1`, for which the “hERG current change (%, negative = inhibition) at 10uM” value is given as -15.2%.
The value for `CCC(C)(C)NC(=O)Cc1ccc(Cl)cc1` was -5.36%; that for `CCOc1ccc(NC2OC(CO)C(O)C(O)C2O)c([N+](=O)[O-])c1` (stereo not shown) was 9.94%; that for `COc1ccc(Cl)cc1S(=O)(=O)N1CCC(C(=O)N2CCOCC2)CC1` was -1.39%.
Consider `CC(C)[C@H](NC(=O)OCc1ccccc1)C(=O)OCC(=O)NC1CCCCC1`, for which the “hERG current change (%, negative = inhibition) at 10uM” value is on record as 0.561%.
`CCOC(=O)Cn1nc(-c2ccccc2)c2cnc3ccc(CC)cc3c21`: the “hERG current change (%, negative = inhibition) at 10uM” value is recorded as 7.54%.
The value for `CCOc1ccccc1NS(=O)(=O)c1ccc(Br)s1` was -4.66%; that for `COc1ccc(-c2ccc(NC(=O)c3ccc(Br)o3)cc2)nn1` was 0.343%; that for `CC(C)CCNC(=O)CSc1nc2ccccc2s1` was 11.9%.
With `COc1ccc(OC)c(S(=O)(=O)N2CCC(C(=O)NCCC3=CCCCC3)CC2)c1`, the “hERG current change (%, negative = inhibition) at 10uM” value is listed as -27.1%.
Under `N#Cc1ccccc1NC(=S)NC(=O)c1cccnc1` stands 13.7%.
Take `COc1cc(C(=O)OCCNC(=O)c2ccccc2)cc(OC)c1OC`: the “hERG current change (%, negative = inhibition) at 10uM” value worked out at 6%.
Under `CCCc1noc(-c2ccc(-c3ccccc3)cc2)n1` stands -2.69%.
Consider `CCOC(=O)c1[nH]c2ccc(OC)cc2c1NC(C)=O`, for which the “hERG current change (%, negative = inhibition) at 10uM” value is -5.75%.
The value for `Cc1ccc(NC(=O)C(C)N2C(=O)C3CC=C(Cl)CC3C2=O)cc1` (stereo not shown) was -3.06%; that for `COc1ccc(NC(=O)CSc2nnc(-c3ccco3)c(-c3ccco3)n2)cc1OC` was -29.4%; that for `O=C(c1ccccc1)N1CCN(C(=O)N2CCOCC2)CC1` was 25.7%.
Under `CCCCn1c(N)c(N(C)C(=O)c2ccc(-n3cccn3)cc2)c(=O)[nH]c1=O` stands 0.138%; under `CC(=O)c1ccc(NC(=O)CSc2ccc(-c3ccc(-n4cccn4)cc3)nn2)cc1`, -7.65%.
Consider `COc1ccccc1C(=O)NC(=S)N1CCc2ccccc21`, for which the “hERG current change (%, negative = inhibition) at 10uM” value stood at 72.5%.
The value for `CCN(CC)C(=O)Nc1cnc2ccccc2c1` was 5.1%; that for `CCOc1ccc(Cl)cc1S(=O)(=O)N1CCC(C(=O)NCc2ccncc2)CC1` was -10.5%.
The value for `COc1ccc(C2=NOC(C(=O)O)C2)cc1` (stereo not shown) was 3.25%; that for `O=C(O)c1ccc(CN2C(=O)c3ccc(Oc4ccc([N+](=O)[O-])cc4)cc3C2=O)cc1` was 1.34%.
For `C=CCNC(=O)C1CC(=O)N(c2ccc(OCC(=O)Nc3ccc(Cl)cc3)cc2)C1` (stereo not shown), the “hERG current change (%, negative = inhibition) at 10uM” value is listed as 18.6%.
In the case of `Cl.O=C(CCN1CCc2ccccc2C1)c1ccc2c(c1)OCCO2`, the “hERG current change (%, negative = inhibition) at 10uM” value is reported as -32.2%.
The value for `CCOC(=O)c1ccc(NC(=O)CN2C(=O)CSC2=O)cc1` was -6.34%; that for `COc1ccc(C2C(C(=O)N3CCN(C)CC3)c3cc(OC)c(OC)cc3C(=O)N2C)cc1` (stereo not shown) was 4.02%.
Consider `O=C(CCn1c(=S)[nH]c2cc3c(cc2c1=O)OCO3)N1CCc2ccccc2C1`, for which the “hERG current change (%, negative = inhibition) at 10uM” value is -26.5%.
Under `O=S(=O)(NCCc1ccccc1)c1cccc(S(=O)(=O)N2CCOCC2)c1` stands -11.6%.
As to `NC(=O)c1ccccc1NC(=O)COC(=O)C1(c2ccccc2)CC1`, the “hERG current change (%, negative = inhibition) at 10uM” value is -6.94%.
Take `COc1ccc(C2c3cc(OC)c(OC)cc3CCN2C(=O)c2ccccc2)cc1OC` (stereo not shown): the “hERG current change (%, negative = inhibition) at 10uM” value was 2.95%.
Under `CCOC(=O)CSc1nc2cc(C(=O)NCc3ccco3)ccc2c(=O)n1-c1ccc(F)cc1` stands -7.69%; under `O=C(NCC(=O)N(Cc1cccs1)C(C(=O)NC1CCCCC1)c1ccco1)c1cccs1` (stereo not shown), -16.6%; under `CC1CCCC(C)N1CCCNC(=O)c1ccc2nc(N3CCCCC3)sc2c1` (stereo not shown), -38%.
The value for `Cc1oc(-c2ccc(Cl)cc2)nc1CS(=O)CC(=O)NC1CCCC1` (stereo not shown) was -11.8%; that for `COc1cc2cc(C(=O)N/N=C/c3cccc(OC)c3OC)[nH]c2cc1OC` was 14%.
For the compound `Cc1cccc(N(CC(=O)NC2CCCCC2)C(=O)c2c(C)noc2C)c1`, the “hERG current change (%, negative = inhibition) at 10uM” value stood at 13.3%.
The value for `NC(=O)c1ccc(SCC(=O)OCC(=O)N2CCCC2=O)c([N+](=O)[O-])c1` was -7.67%.
As for `O=C(/C=C/c1ccccc1)NCCc1ccc2c(c1)OCCO2`, the “hERG current change (%, negative = inhibition) at 10uM” value is -31.1%.
In the case of `CCN(CC)CCCNC(=S)N1CCC(c2nc3ccccc3[nH]2)CC1`, the “hERG current change (%, negative = inhibition) at 10uM” value worked out at 9.2%.
The value for `O=C1C2CCCN2C(c2ccccc2)N1c1ccc(F)cc1` (stereo not shown) was 0.786%; that for `CCC(=O)N(Cc1ccco1)C1CC(=O)N(c2ccccc2)C1=O` (stereo not shown) was -49.2%; that for `Nc1cc(Cl)ccc1C(=O)OCC(=O)N1CCOCC1` was 23.2%.
For the compound `Cc1nc2ccccc2c(=O)n1/N=C/c1cc(Br)cc(Br)c1O`, the “hERG current change (%, negative = inhibition) at 10uM” value turned out to be 7.17%.
With `COc1ccc(-n2nc(C(=O)NCC(=O)N3CCN(c4ccccc4F)CC3)c3ccccc3c2=O)cc1OC`, the “hERG current change (%, negative = inhibition) at 10uM” value is reported as -9.27%.
As to `O=c1[nH]c2ccccc2[n+]([O-])c1-c1ccccc1`, the “hERG current change (%, negative = inhibition) at 10uM” value came to 17.3%.
Under `CCOc1ccc(C(=O)NCC(=O)NCC(c2ccco2)N2CCCCC2)cc1` (stereo not shown) stands 3.68%.
On to `O=C(Cc1cccs1)Nc1ccc(-c2nnn(CC(=O)N3CCOCC3)n2)cc1`, for which the “hERG current change (%, negative = inhibition) at 10uM” value was 5.87%.
With `CC1CCCN(C(=O)CSc2nnc(-c3ccco3)n2C)C1` (stereo not shown), the “hERG current change (%, negative = inhibition) at 10uM” value was 9.42%.
The value for `Cc1cc(C)c2c(n1)nn1c(NCCCN(C)C)cc(C)nc21` was -19.3%; that for `COC(=O)C1CCN(C(=O)COC(=O)c2oc3ccccc3c2C)CC1` was -23.9%.
As for `O=C(NCCc1ccccc1)C1CCN(C(=O)c2sccc2-n2cccc2)CC1`, the “hERG current change (%, negative = inhibition) at 10uM” value is -9.44%.

These data come from PMC4336329 (PLoS ONE, 2015).
